{
  "source": "paper PMC12040169",
  "about": "(PLOS Biology, 2025)",
  "note": "The other results are listed elsewhere or left out.",
  "data": [
    {"tested_on": "T1, C. trachomatis L2/434/Bu expressing GFP (CTL2-GFP)", "T1 construct": "L2/434/Bu GFP intracellular growth in HeLa cells", "design": "species or system HeLa; C. trachomatis total inclusion area by high-content imaging, normalised to DMSO", "conditions": "total inclusion area; 28.5 h, 10 µM; inhibitor", "procedure,_shortened": "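Imaging read-out: GFP inclusions and Hoechst nuclei captured by high-content imaging after fixation. Inclusion area/number = chlamydial growth; nuclei count = host cell viability. MIC calculated per earlier method.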", "values": [
      {"smiles": "COC(=O)c1ccc(NC(=O)N(Cc2cnn(C)c2)CC(C)C)cc1Cl", "note": "[CBK304387]", "% of control remaining": 104.221},
      {"smiles": "NC(=O)NC(CC(=O)N1CCOC2CCCCC21)c1cccc(Br)c1", "note": "(centres unmarked) [CBK306299]", "% of control remaining": 81.5621},
      {"smiles": "C=CCNC(=O)[C@@H]1C=CCN1S(=O)(=O)c1ccc(Cl)cc1", "note": "[CBK284318]", "% of control remaining": 88.7565},
      {"smiles": "Cc1[nH]c(=O)[nH]c(=O)c1S(=O)(=O)Nc1ccc(S(N)(=O)=O)cc1", "note": "[CBK262123]", "% of control remaining": 69.6143},
      {"smiles": "COc1ccc(CCNC(=O)N2CCN(c3cc(C(F)(F)F)ccn3)CC2)cc1OC", "note": "[CBK162330]", "% of control remaining": 52.3068},
      {"smiles": "COc1ccc(CN2C(=O)CC(c3ccccc3)C2=O)cc1", "note": "(centres unmarked) [CBK002055]", "% of control remaining": 113.956},
      {"smiles": "Cc1ccc2c(c1)c(-c1ccccc1)c(-c1ccccc1)n2CC(O)Cn1cnc(-c2ccccc2)c1-c1ccccc1", "note": "(centres unmarked) [CBK262531]", "% of control remaining": 128.535},
      {"smiles": "O=S(=O)(c1ccc(C(F)(F)F)cc1Cl)N1CCCN(Cc2ccc(F)cc2F)CC1", "note": "[CBK062946]", "% of control remaining": 102.822},
      {"smiles": "O=C(NCO)c1ccccc1O", "note": "[CBK012717]", "% of control remaining": 67.8321},
      {"smiles": "CC12CCC(C(=O)O)(C/C1=N\\N)C2(C)C", "note": "(centres unmarked) [CBK265268]", "% of control remaining": 117.102},
      {"smiles": "Cc1ccc(CCCC(=O)N2CCc3c([nH]c4c(C)cccc34)C23CCN(Cc2ccc(F)cc2)C3)cc1", "note": "(centres unmarked) [CBK066979]", "% of control remaining": 59.9269},
      {"smiles": "Cc1ccc(C(=O)N2CCC(Cc3ccccc3)CC2)cn1", "note": "[CBK200179]", "% of control remaining": 86.3411},
      {"smiles": "CCN1CCN(Cc2c(O)ccc3c(=O)c(-c4ccccc4OC)c(C(F)(F)F)oc23)CC1", "note": "[CBK263692]", "% of control remaining": 105.454},
      {"smiles": "O=S(=O)(Nc1cc(-c2ccco2)n[nH]1)c1ccc(Br)cc1C(F)(F)F", "note": "[CBK067286]", "% of control remaining": 90.904},
      {"smiles": "CCc1nn(CC(=O)OC(C)C)c(=O)c2cc3sccc3n12", "note": "[CBK284076]", "% of control remaining": 96.0242},
      {"smiles": "OCc1cccc(-c2cncc(NC3CCC(O)CC3)n2)c1", "note": "(centres unmarked) [CBK065448]", "% of control remaining": 76.5167},
      {"smiles": "COc1ccc2[nH]c(C(=O)O)c(CCC(=O)O)c2c1", "note": "[CBK266582]", "% of control remaining": 111.051},
      {"smiles": "N#Cc1ccc(Cn2cc(C(=O)C(N)=O)c3ccccc32)cc1", "note": "[CBK270062]", "% of control remaining": 85.2281},
      {"smiles": "Nc1nc(-c2ccc(F)cc2)c2c(n1)-c1ccccc1C2=O", "note": "[CBK287881]", "% of control remaining": 75.5691},
      {"smiles": "CCn1c(=N)n(CC(=O)O)c2ccccc21", "note": "[CBK262906B]", "% of control remaining": 96.1183},
      {"smiles": "COc1cc(C(=O)N2CCCC3(CCN(C(=O)Cc4c[nH]c5ccccc45)C3)C2)cc(OC)c1OC", "note": "(centres unmarked) [CBK131601]", "% of control remaining": 103.279},
      {"smiles": "COc1ncc(-c2cncc(N3CCCN(C)CC3)n2)c(OC)n1", "note": "[CBK065286]", "% of control remaining": 68.2184},
      {"smiles": "FC(F)(F)c1ccc(OC2CCNCC2)nc1", "note": "[CBK113287]", "% of control remaining": 105.496},
      {"smiles": "Cc1ccc(C(=O)CN2CCC3(CC2)NCCc2c3[nH]c3ccc(F)cc23)cc1", "note": "[CBK039503]", "% of control remaining": 83.1125},
      {"smiles": "CC(C)[C@@H](CO)n1c(=O)[nH]c2ncc(-c3cccc(/C=C/C(=O)O)c3)nc21", "note": "[CBK065043]", "% of control remaining": 106.865},
      {"smiles": "CC(C)(Cc1ccccc1)NCC(O)COc1ccc2c(c1)C1CCC2C1", "note": "(centres unmarked) [CBK018228C]", "% of control remaining": 1.286},
      {"smiles": "CN1CC[C@@H]2[C@H]1C(=O)NC[C@H](CCC(=O)NCc1cccs1)N2C", "note": "[CBK289028]", "% of control remaining": 76.2094},
      {"smiles": "COCCc1nc(C2CCN(C)CC2)n(Cc2ccccc2C)n1", "note": "[CBK307449]", "% of control remaining": 88.8444},
      {"smiles": "COc1cc(/C=N/c2cccc3c(/N=C/c4ccc(O)c(OC)c4)cccc23)ccc1O", "note": "[CBK261224]", "% of control remaining": 0.8577},
      {"smiles": "CC(C)(CO)CNc1cncc(-c2ccccc2CO)n1", "note": "[CBK066088]", "% of control remaining": 124.602},
      {"smiles": "CCN(CC)S(=O)(=O)c1cccc(-n2sc3ccccc3c2=O)c1", "note": "[CBK116501]", "% of control remaining": 85.1592},
      {"smiles": "COc1ccc(Cc2c(C)nc3c(C(=O)NCC4CCCO4)cnn3c2C)cc1", "note": "(centres unmarked) [CBK162183]", "% of control remaining": 80.3564},
      {"smiles": "CCOC(=O)CSc1nc(=O)cc(N)n1Cc1ccc(F)cc1", "note": "[CBK269938]", "% of control remaining": 81.5349},
      {"smiles": "CC(C)[C@H](CO)n1c(=O)[nH]c2ncc(-c3ccco3)nc21", "note": "[CBK064479]", "% of control remaining": 106.558},
      {"smiles": "Cc1c(C(=O)N(C)Cc2cc3ccccc3o2)nnn1C1CCNCC1", "note": "[CBK304307C]", "% of control remaining": 69.742},
      {"smiles": "CSc1ccc(-n2ncc(-c3cccc(C(F)(F)F)c3)n2)cc1", "note": "[CBK112666]", "% of control remaining": 74.1905},
      {"smiles": "Cc1ccc(-n2ncc3c2NC(=O)N2CCN=C32)cc1", "note": "[CBK284345]", "% of control remaining": 83.9877},
      {"smiles": "CC(C)n1c(=O)n(CC(=O)NCc2ccccc2)c2cccnc21", "note": "[CBK283758]", "% of control remaining": 86.2857},
      {"smiles": "O=C(O)c1ccc2[nH]cc(CN3CCOCC3)c2c1", "note": "[CBK287081]", "% of control remaining": 108.395},
      {"smiles": "CC(C)(C)c1cc(CCC(=O)N2CCN(C(=O)CCc3cc(C(C)(C)C)c(O)c(C(C)(C)C)c3)CC2)cc(C(C)(C)C)c1O", "note": "[CBK261963]", "% of control remaining": 73.757},
      {"smiles": "c1ccc2c(OCc3nc4c5c6c(sc5ncn4n3)CCCCC6)cccc2c1", "note": "[CBK264151]", "% of control remaining": 107.793},
      {"smiles": "Nc1cccc(-c2cncc(NCC3CCOCC3)n2)c1", "note": "[CBK037221]", "% of control remaining": 149.977},
      {"smiles": "COCCn1c(SCCC(=O)O)nc2c1c(=O)[nH]c(=O)n2C", "note": "[CBK139751]", "% of control remaining": 77.9706},
      {"smiles": "Sc1nnc(COc2ccccc2)n1/N=C/c1ccc(-c2ccccc2)cc1", "note": "[CBK265269]", "% of control remaining": 96.511},
      {"smiles": "O=c1c2ccccc2nc(S)n1CC(O)c1ccccc1", "note": "(centres unmarked) [CBK288386]", "% of control remaining": 40.6774},
      {"smiles": "CC1=C(c2ccc(OC(C)(C)CN3CCCC3)cc2)C(C)CCC1", "note": "(centres unmarked) [CBK012357C]", "% of control remaining": 53.4579},
      {"smiles": "Cc1ccc(C2(CN3CCN(Cc4cnc(C)n4C)CC3)CC2)cc1", "note": "[CBK282469]", "% of control remaining": 103.675},
      {"smiles": "O=C(CCc1ccco1)N1CCCC1c1nc2ccccc2[nH]1", "note": "(centres unmarked) [CBK283767]", "% of control remaining": 80.4806},
      {"smiles": "CCCC/C=C/c1cn2ccnc2c(Nc2cccc(OCC(=O)N(C)C)c2)n1", "note": "[CBK066185]", "% of control remaining": 107.971},
      {"smiles": "Cc1cc(C)n(CCCC(=O)N2CCC3(CC2)CC(=O)N(C)C3)n1", "note": "[CBK306905]", "% of control remaining": 46.8457}
    ]}
  ]
}
